The record followed here is paper PMC12136788.

Changes are numbered by the printed parent chain. The list shows a part of the results.

T1: UNK ZnF1-3 (human, UniProt Q9C0B0 31-174)
T1 sequence: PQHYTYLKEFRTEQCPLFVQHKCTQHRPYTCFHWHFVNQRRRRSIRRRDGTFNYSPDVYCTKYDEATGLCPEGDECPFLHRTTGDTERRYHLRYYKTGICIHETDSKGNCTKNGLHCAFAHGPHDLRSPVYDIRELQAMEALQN

B1: chr4:62047152:62047153:+_ENSMUSG00000066150_ENSMUST00000084526|mus_mus|FALSE|FALSE (ssRNA)
RNA: GGGAGUUCUACAGUCCGACGAUCUCCAGCCAUUUCUCCAGGUGUAUUGAUUACCAAACCGGAAAACAAUAGAUUCACAUUCUUAAAGUCAAAGUAGAAGGUCAUAGGCAUCAUCAUCAUGCUGUCCCCUCCACCGUGGGAGUGCAACAGAGGAUUGAGCAUCA
B2: chr21:38528988:38528989:+_ENSG00000182670_ENST00000355666|hu_hu|FALSE|FALSE (ssRNA)
RNA: GGGAGUUCUACAGUCCGACGAUCAAAAUCAAGCAGUUUAAGAGAUGCUCCAUAACGAGAAAAGAAAGUUCCUGUGGCAUCUAAGCCAAAGCUAUUAAGUUUUUGGAUCCAGGCGGCUAAUUUGGGCUCCACUUCUUUAAGCUCCAACAGAGGAUUGAGCAUCA
B3: 79225077_79225582_1203_3pUTR_ENSMUSG00000020716_ENSMUST00000071325|mouse|control|control (ssRNA)
RNA: GGGAGUUCUACAGUCCGACGAUCGGUUUACUUGGAUUAAAAAGCAGGUUCUUAAGAUCAACUACCAUGGACUGAACCAGUAGGAAAAUGACAGAAUUAUCUUCCCAGUUGAUGUAAGUACUUGCUUUACACAACUUGACACAACAACAGAGGAUUGAGCAUCA
B4: chr15:78834838:78834839:+_ENSG00000041357_ENST00000044462|hu_hu|motif|central (ssRNA)
RNA: GGGAGUUCUACAGUCCGACGAUCAUCAAGAAGCUUGUGGAUGUUGCGUCUCUCUGCUGCAAGCAAAACACCAUCAUUUGCGGAAAUUCCCAAACAGGUGCCUGCAUGUCCAAUAGCUUCCAUGGCAUAUUCAACUUGGUAUAACAACAGAGGAUUGAGCAUCA
B5: chr2:216981417:216981418:+_ENSG00000079246_ENST00000392132|hu_mus|FALSE|FALSE (ssRNA)
RNA: GGGAGUUCUACAGUCCGACGAUCCUGAUACUGGUCCUUGCCAGCAAGGGCAUUAUCAGUGCCAUCUGUGCCAUAGAGGACUAACGCAAUCUCAUCUUUGCUCUCCGAAAAUACCUGUCGUUGGACAAACAUAGUCAUCACUUUCAACAGAGGAUUGAGCAUCA
B6: chr2:216981417:216981418:+_ENSG00000079246_ENST00000392132|hu_hu|hu_hu_hu_mus_True|8_88 (ssRNA)
RNA: B5 RNA with C50G, A54G, A132G, C135U

For this assay, the target named is T1, UNK ZnF1-3. Briefly: nsRBNS (natural sequence RNA bind-n-seq); RBNS binding buffer (assumed for nsRBNS): 25 mM Tris pH 7.5, 150 mM KCl, 3 mM MgCl2, 0.01% Triton X-100, 500 ug/ml BSA, 20 U/ml SUPERase-In, 4 C; UNK is unkempt and MSI1 is Musashi-1; names of the RNAs are library labels; protein concentration not given here; high values mean tight binding.
B1 returned a binding signal of 1.43 enrichment R. Molecule B2 had a binding signal of 1.01 enrichment R. With B3 the figure was 0.486 enrichment R; with B4, 0.875 enrichment R; with B5, 0.599 enrichment R.

Regarding B6, the binding signal came to 1.23 enrichment R.
